PubChem BioAssay AID1159614 (National Center for Advancing Translational Sciences (NCATS), 2016)
The campaign covered roughly 45,000 compounds. About 65 (0.1%) were called active. Calls follow the shape of the dose curve; as a rule, active = well fitted activation curve with a large enough effect; inconclusive = small, poorly fitted or top-dose-only effect; inactive = no such curve, though single readings can be large or run the other way. This is one part of the list.

Molecular target: Galactocerebrosidase (Homo sapiens) (UniProt P54803)
UniProt P54803, sequence (P54803 whole entry, looked up): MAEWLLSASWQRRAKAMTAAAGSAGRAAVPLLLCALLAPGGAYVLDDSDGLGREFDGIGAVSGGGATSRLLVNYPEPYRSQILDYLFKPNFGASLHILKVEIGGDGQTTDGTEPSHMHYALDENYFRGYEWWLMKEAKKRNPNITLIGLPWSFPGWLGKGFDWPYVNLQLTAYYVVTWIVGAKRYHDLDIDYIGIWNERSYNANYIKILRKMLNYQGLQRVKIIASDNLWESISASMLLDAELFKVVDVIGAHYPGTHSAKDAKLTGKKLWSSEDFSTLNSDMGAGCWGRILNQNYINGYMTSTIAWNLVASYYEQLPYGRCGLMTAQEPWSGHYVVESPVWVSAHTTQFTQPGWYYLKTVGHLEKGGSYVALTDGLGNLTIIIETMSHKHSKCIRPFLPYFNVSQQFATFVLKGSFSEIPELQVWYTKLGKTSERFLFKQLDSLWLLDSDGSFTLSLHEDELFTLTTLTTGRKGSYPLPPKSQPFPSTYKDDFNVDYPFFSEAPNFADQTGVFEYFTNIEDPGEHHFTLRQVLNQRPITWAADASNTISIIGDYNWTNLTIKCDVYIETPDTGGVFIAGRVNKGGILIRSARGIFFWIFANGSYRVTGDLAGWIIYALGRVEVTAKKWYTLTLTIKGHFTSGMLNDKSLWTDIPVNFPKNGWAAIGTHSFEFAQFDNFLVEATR
Test: A Novel Cell-Based Assay to Identify Small Molecules for B -Galactocerebrosidase; also: 0% is about no effect; nearly all actives have a fitted effect of over 65% in size
Settings: 145M-Twi-hGALC-G270D cells (Twitcher mouse brain line with human GALC G270D), HMU-beta-Gal fluorescence, 48 h; series mostly up to 57.5 µM; activation: at the top concentration
Outline: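 Fluorogenic HMU-b-Gal hydrolysis (0.1 mM final, pH 5.2 citrate-phosphate with 1 mg/mL sodium taurocholate; carbonate stop buffer) measures mutant GALC activity after compound treatment of live 145M-Twi Twitcher brain cells stably carrying human GALC-G270D, with wild-type GALC line alongside; activation sought.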

activation, inactive:
CCOc1ccc(S(=O)(=O)NCc2ccc3c(c2)CCN3C(=O)c2ccc(C)cc2)cc1 -9.8%
CCn1ccc2cc(S(=O)(=O)N3CCC(C(=O)NCC(C)c4ccccc4)CC3)ccc21 (stereo unspecified) -9.34%
Cc1ccc(NCc2cc3cc4c(cc3n(CC(=O)Nc3ccc(F)cc3F)c2=O)OCCO4)cc1 1.57%
Cc1nnc2c3ccccc3nc(Nc3ccccc3C(=O)O)n12 -14.3%
COc1ccc(S(=O)(=O)Nc2cc(-c3cn4ccc(C)cc4n3)ccc2C)cc1OC -19%
O=C(COc1ccc(Cl)cc1)Nc1ccc2nc(SCC(=O)N3CCOCC3)sc2c1 -13.4%
O=C(Nc1ccc(C(F)(F)F)cc1)c1cc(S(=O)(=O)N2CCCc3ccccc32)ccc1F -8.68%
Cc1ccc(CN2c3ccccc3-c3nc(SCC(=O)NCCc4ccccc4)ncc3S2(=O)=O)cc1 0.654%
CCOC(=O)c1cccc(NC(=O)CSc2cc(=O)n(C)c3ccccc23)c1 -33.1%
CCN(CC)CCNC(=O)c1ccc(-c2nc(CN3CCc4ccccc43)c(C)o2)cc1 -15.4%
Cc1nnsc1C(=O)Oc1ccc(C#N)cc1 -10.9%
O=C(/C=C/c1ccccc1)Nc1nc2n(n1)C(c1ccc(Cl)cc1)C=C(c1ccccc1)N2 (stereo unspecified) -11.1%
Clc1ccc(CN2CCc3nc(N4CCN(c5ccccn5)CC4)ncc3C2)cc1 -10.1%
O=C(CN1C(=O)C2(SCC(=O)N2c2cccc(F)c2)c2ccccc21)NCc1ccccc1Cl (stereo unspecified) -11%
CCOC(=O)c1ccc(Oc2nc(C)nc3c2oc2ccccc23)cc1 -11.1%
CC(C)CC(=O)NCC(c1ccc2c(c1)OCO2)N1CCN(c2ccc(F)cc2)CC1 (stereo unspecified) 5.36%
CC(C)(C)c1ccc(S(=O)(=O)c2cnc(SCC(=O)Nc3ccc4c(c3)OCCO4)[nH]c2=O)cc1 -21.1%
CCc1nc2ccccc2n1CCCCOc1cccc(C)c1 -19.6%
CCOC(=O)c1cc(-c2ccccc2)n(CCCC(=O)Nc2cccc(C)c2)c1C -0.497%
COc1cc(C2c3c(oc4ccc(F)cc4c3=O)C(=O)N2c2nc(C)c(C)s2)cc(OC)c1OC (stereo unspecified) -4.91%
O=C(CCS(=O)(=O)c1cc(Br)cc2c1N(C(=O)C1CC1)CC2)N1CCN(c2ccc(F)cc2)CC1 -16.3%
Cc1ccc(N(C)C(=O)Cn2cnc3onc(-c4ccc(F)cc4)c3c2=O)cc1C -21.9%
COc1ccc(C)cc1NC(=O)COCc1cc(-c2cccs2)on1 -18.8%
CCOc1ccc(NC(=O)CSc2nc3c(c(=O)[nH]2)CCCC3)cc1 -19.8%
Cc1ccc2ncc(C(=O)NCCc3ccc(S(N)(=O)=O)cc3)c(=O)n2c1 -28.6%
COc1ccc(CCNC(=O)CCCn2c(=O)c3ccccc3n(Cc3ccc(C)cc3)c2=O)cc1OC -5.19%
COc1cc(NC(=O)CSc2nc3ccccc3nc2Cc2ccccc2OC)cc(OC)c1 -2.56%
COc1cccc(CNC(=O)CNS(=O)(=O)c2ccc3nc(C)sc3c2)c1 -4.77%
O=C(c1ccc(Cl)cc1)N(Cc1ccco1)Cc1ccco1 -9.01%
CCOc1ccccc1Nc1sc(C(=O)c2ccccc2)c(N)c1C(=O)NCCc1ccccc1 -12.4%
COc1ccccc1OCCn1c(COc2cc(C)ccc2C)nc2ccccc21 -14.8%
Cc1nn2c(C)c(C(=O)N3CCN(c4ccccc4)CC3)cnc2c1-c1ccccc1 -3.55%
Cc1ccc(CCNC(=O)c2cc3c(=O)oc4ccccc4c3s2)cc1 -27.8%
CCN(CC)S(=O)(=O)c1nnc(NC(=O)c2ccccc2Cl)s1 -18.8%
CC(C)CNc1nc(NC(C)(C)C)nc(Oc2ccc(=O)n(-c3ccccc3)n2)n1 -10.6%
CCC(=O)Nc1ccc(C)cc1-c1nc2ccccc2n(CC(=O)Nc2ccccc2Cl)c1=O 4.99%
COc1cc(OC)cc(C(=O)Nc2ccc3oc(-c4ccccc4C)nc3c2)c1 -11.2%
COc1ccc(NC(=O)Cn2c(=O)n(CC3CCCO3)c(=O)c3ccccc32)c(OC)c1 (stereo unspecified) -3.16%
CCN1CCN(CCCNC(=O)c2cc3c(=O)n(CC)c4ccccc4c3s2)CC1 -0.332%
Cc1c(CNCc2ccc(OC(C)C)cc2)c(C(=O)O)c(C)n1Cc1ccc(Cl)cc1 -7.7%
COc1ccc(N(C(=O)c2ccccc2F)S(=O)(=O)c2ccc3c(c2)n(C)c(=O)n3C)cc1 2.86%
CC(=O)N1CCOc2cc(S(=O)(=O)NCc3ccc(C)cc3)c(C)cc21 -4.33%
CCOc1ccc(CNC(=O)c2ccc3c(c2)nc2n3CCOC2)cc1 3.45%
COc1ccc(-c2cc(C(F)(F)F)nc(SCC(=O)N(C)Cc3ccccc3)n2)cc1OC -5.9%
COc1ccc2c(c1)c1c(c(=O)n(CCc3ccccc3)c(=O)n1Cc1ccccc1)n2C 0.94%
Cc1ccc(NC(=O)c2oc3ccc(S(=O)(=O)N4CCCCC4)cc3c2C)cc1C -11.8%
O=C(c1cc2ccc3cccnc3c2[nH]1)N1CCN(c2cccc(C(F)(F)F)c2)CC1 -12.9%
Cc1ccc(C)c2sc(NC(=O)c3ccc(S(=O)(=O)N4CCCC4)cc3)nc12 -6.24%
COc1ccc(CNC(=O)c2c(Nc3ccc(OC)cc3OC)sc(C(=O)c3ccc(Cl)cc3)c2N)cc1 -2.89%
CCOC(=O)CSc1nc2sc3c(c2c(=O)n1Cc1ccccc1)CCC(C(C)(C)C)C3 (stereo unspecified) -11.1%
COc1cc(O)ccc1C1CC(=O)Nc2c1c(=O)nc(SCc1ccccc1C)n2C (stereo unspecified) -4.7%
CCC(C)(C)NS(=O)(=O)c1cc(-c2cc(C)no2)ccc1C -21%
CCN1c2ccccc2-c2nc(SCC(=O)Nc3cccc(C(F)(F)F)c3)ncc2S1(=O)=O -15.7%
COc1ccc2nc(S(=O)Cc3ncc(C)c(OC)c3C)[nH]c2c1 (stereo unspecified) -12.7%
CCOC(=O)c1cccc(NC(=O)c2cc(S(=O)(=O)N3CCCCCC3)cn2C)c1 -6.3%
COc1ccc(CNc2oc(-c3ccc(COc4ccc(Cl)cc4)o3)nc2C#N)cc1 -13.1%
Cc1ccc(C)c(CN2C(=O)c3ccccc3S(=O)c3ccc(C(=O)N4CCC(C)CC4)cc32)c1 (stereo unspecified) -10.8%
Cc1cc(C)cc(Nc2cc(C(=O)NCCCN(Cc3ccccc3)C(C)C)c3ccccc3n2)c1 -0.343%
CCOc1ccc(CNC(=O)c2cc(=O)[nH]c3ccc(S(=O)(=O)N4CCCCC4)cc23)cc1 -22.3%
COc1ccc(CN(C(=O)c2cc3ccccc3oc2=O)C2CCS(=O)(=O)C2)cc1 (stereo unspecified) -9.4%
Cc1ccc(CNC(=O)C2CCC(CNS(=O)(=O)c3ccc4c(c3)CCCC(=O)N4)CC2)cc1 (stereo unspecified) 3.58%
CC(C)OCCCNC(=O)CCCn1c(=O)[nH]c2ccsc2c1=O -17%
COc1ccc(NC(=O)CN2CCCN(S(=O)(=O)c3ccc(Br)cc3)CC2)c(OC)c1 -26.6%
CCOC(=O)c1ccc(NC(=O)CCS(=O)(=O)c2ccc(C)cc2)cc1 -7.9%
Cc1cccc(-c2nc(CCNC(=O)c3ccco3)cs2)c1 -1.57%
O=C(Nc1cccc(-c2nc3ccccc3o2)c1)c1cc([N+](=O)[O-])ccc1N1CCOCC1 -21.6%
CCN(Cc1ccccc1)C(=O)Cn1c(=O)n(-c2ccc(F)c(Cl)c2)c(=O)c2sc3ccccc3c21 -6.28%
Cc1cccc(C)c1OCCSc1nc2ccccc2n1CC(=O)O -7.65%
COc1ccc(N2CCN(S(=O)(=O)c3csc(C(N)=O)c3)CC2)cc1 2.88%
COC(=O)CC1Oc2ccc(F)cc2-n2cc(-c3ccc(Cl)cc3)nc21 (stereo unspecified) 26.2%
COc1ccc(-c2nc3c4cnn(-c5ccccc5F)c4ncn3n2)cc1 -5.74%
CC(=O)Nc1ccc(NS(=O)(=O)c2ccc3c(c2)CC(C)N3C(=O)C2CCC2)cc1 (stereo unspecified) -14.7%
CCc1ccc(CNC(=O)COc2cc(=O)n(CC)c3ccccc23)cc1 -39.9%
CC(=O)N1CCCC1c1nc2ccccc2n1Cc1cccc(Cl)c1 (stereo unspecified) -25.2%
COc1ccc(-n2nnc(-c3nc(-c4cccs4)no3)c2N)cc1OC -22.9%
COC(=O)c1c(NC(=O)c2nc(SCc3cccc(C)c3)ncc2Cl)sc2c1CCCC2 8.74%
CC1=C(c2ccc(F)cc2)S(=O)(=O)NC1=NCc1ccccc1F -19%
COc1cc(C2CC(=O)c3c([nH]c(C(=O)OCC4CCCCC4)c3C)C2)cc(OC)c1OC (stereo unspecified) -26.8%
COc1ccc(-c2nc(C)c(CCNC(=O)C(=O)Nc3ccccc3C#N)s2)cc1OC -5.93%
COc1cc(NC(=O)CC(c2ccc(C)cc2)N2Cc3ccccc3C2=O)cc(OC)c1 (stereo unspecified) -45%
Cc1ccc(-c2noc(-c3ccc(NCc4ccco4)c([N+](=O)[O-])c3)n2)cc1 2.43%
Cc1ccccc1NS(=O)(=O)c1ccc2[nH]cc(C(=O)NC(C)c3ccccc3)c(=O)c2c1 (stereo unspecified) -12.5%
COc1ccccc1C(=O)Nc1nc2nc(-c3ccccc3)cc(=O)n2[nH]1 -4.04%
CCc1nn2c(=O)cc(COC(=O)c3ccc(NC(=O)c4cccs4)cc3)nc2s1 -12.7%
CCOc1ccccc1CNC(=O)Cn1ncn2nc(-c3cccs3)cc2c1=O -9.19%
Cc1ccc(C)c(CNC(=O)C2CCN(c3nc4ccccc4nc3C(F)(F)F)CC2)c1 -6.56%
COc1ccccc1CCNC(=O)C(=O)NCC(c1cccs1)S(=O)(=O)c1ccc(C)cc1 (stereo unspecified) -10%
COc1ccc(Nc2nnc(-c3cc4c(ccc5ccccc54)oc3=O)s2)cc1 -10.5%
Cc1n[nH]c(C)c1S(=O)(=O)N1CCCC(C(=O)Nc2ccc(Br)cc2)C1 (stereo unspecified) -1.48%
COc1ccc(CCNC(=O)c2cc(C)nc3c2c(C)nn3-c2ccc(C)cc2)cc1OC -11.5%
Cc1cc(Nc2ccccc2C)nc(-n2nc(C)cc2C)n1 -9.61%
CCNC(=O)c1ccc2nc(CCc3ccccc3)oc2c1 -7.16%
CCN(CC)CCCNC(=O)c1ccc2nc(N3CCCCC3)sc2c1 -5.53%
CCOc1ccccc1CN1CCc2nc(N3CCN(c4ccccc4F)CC3)ncc2C1 -9.63%
COc1ccc2nc(N(Cc3cccnc3)C(=O)C3COc4ccccc4O3)sc2c1 (stereo unspecified) -25.1%
CCCN(C(=O)c1cn(C)c(=O)c2ccccc12)c1ccccc1C -1.46%
